# From US12414961B2, “Substituted nucleosides and nucleotides for treating viral infections” (priority 2013, dated 2025)
# Columns and labels:
# Type in all cases: cell-based
# Settings in all cases: Dengue virus; Cell Line Huh-7
# [1] = test system: Dengue Type 4; assay: Dengue Type 4 antiviral assay, Huh-7
# [2] = test system: Dengue Type 1; assay: Dengue Type 1 antiviral assay, Huh-7
# [3] = test system: Dengue Type 3; assay: Dengue Type 3 antiviral assay, Huh-7
compound,measurement,setting,value
CC(C)OC(=O)[C@H](C)N[P@](=O)(OC[C@H]1O[C@@H](n2ccc(=O)[nH]c2=S)C(C)(O)[C@H]1O)Oc1ccccc1 (stereo partly drawn) [drawing 393],EC50,[1],14.2 µM
same,EC50,[2],1.76 µM
same,EC50,[3],7.28 µM
